Experimental data: the supplement of paper PMC4604168 (melanoma cell lines)
The list shows a part of the results. Most values come without repeats; read them as rough.

What was measured:
Experiment in all cases: cell count relative to DMSO control; melanoma cells; higher = more viable cells
Settings in all cases: library dose: standard library concentration; 72 h
G361 = tested on: G361
IPC-298 = tested on: IPC-298
IST-MEL1 = tested on: IST-MEL1
LB2518-MEL = tested on: LB2518-MEL
LOXIMVI = tested on: LOXIMVI
MEL-HO = tested on: MEL-HO
MZ2-MEL = tested on: MZ2-MEL
MeWo = tested on: MeWo
RPMI7951 = tested on: RPMI7951
RVH-421 = tested on: RVH-421
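Note: cells treated in 1,536-well plates, then fixed and DAPI-stained, with nuclei counted from automated high-throughput microscope images.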

In the case of `Cc1cc(Nc2cc(N3CCN(C)CC3)nc(Sc3ccc(NC(=O)C4CC4)cc3)n2)n[nH]1` [Tozasertib] + CS(=O)(=O)CCNCc1ccc(-c2ccc3ncnc(Nc4ccc(OCc5cccc(F)c5)c(Cl)c4)c3c2)o1 [lapatinib] (first compound 0.03 µM, partner dose 4 µM), the cell count (G361) is reported as 62.3%, the cell count (IPC-298) is reported as 64.3% and the cell count (IST-MEL1) is reported as 81%. The cell count (LB2518-MEL) was 62%, the cell count (LOXIMVI) was 73.2% and the cell count (MEL-HO) was 71.5%. The cell count (MZ2-MEL) was 43.4%, the cell count (MeWo) was 60.4% and the cell count (RPMI7951) was 37%. It also gave a cell count (RVH-421) of 81.9%.

In the case of `N#CC[C@H](C1CCCC1)n1cc(-c2ncnc3[nH]ccc23)cn1` [ruxolitinib] + CC[C@]1(O)C[C@H]2CN(CCc3c([nH]c4ccccc34)[C@@](C(=O)OC)(c3cc4c(cc3OC)N(C=O)[C@H]3[C@@](O)(C(=O)OC)[C@H](OC(C)=O)[C@]5(CC)C=CCN6CC[C@]43[C@@H]65)C2)C1 [vincristine] (first compound 5 µM, partner dose 0.0005 µM), the cell count (G361) is reported as 82.6%, the cell count (IPC-298) is reported as 99.6% and the cell count (IST-MEL1) is reported as 82.6%. It also gave a cell count (LB2518-MEL) of 102%, a cell count (LOXIMVI) of 91.7% and a cell count (MEL-HO) of 88.6%. It also gave a cell count (MZ2-MEL) of 108%, a cell count (MeWo) of 83.1% and a cell count (RPMI7951) of 54.2%. The cell count (RVH-421) was 43.1%.

In the case of `Cc1cc(Nc2cc(N3CCN(C)CC3)nc(Sc3ccc(NC(=O)C4CC4)cc3)n2)n[nH]1` [Tozasertib] + N#Cc1c(O)c2c(-c3ccc(-c4ccccc4O)cc3)csc2[nH]c1=O [A769662] (first compound 0.03 µM, partner dose 10 µM), the cell count (G361) is reported as 98.6%, the cell count (IPC-298) is reported as 103% and the cell count (IST-MEL1) is reported as 79.3%. For the same compound, the cell count (LB2518-MEL) was 72.1%, the cell count (LOXIMVI) was 136% and the cell count (MEL-HO) was 96%. The cell count (MZ2-MEL) was 91.2%, the cell count (MeWo) was 88.5% and the cell count (RPMI7951) was 92.4%. It also gave a cell count (RVH-421) of 104%.

For `Cc1cc(Nc2cc(N3CCN(C)CC3)nc(Sc3ccc(NC(=O)C4CC4)cc3)n2)n[nH]1` [Tozasertib] + Cn1sc(=O)n(Cc2ccccc2)c1=O [TDZD-8] (first compound 0.03 µM, partner dose 2 µM), the cell count (G361) was 119%, the cell count (IPC-298) was 85.3% and the cell count (IST-MEL1) was 82.3%. It also gave a cell count (LB2518-MEL) of 101%, a cell count (LOXIMVI) of 36.7% and a cell count (MEL-HO) of 92.6%. For the same compound, the cell count (MZ2-MEL) was 67.9%, the cell count (MeWo) was 73.9% and the cell count (RPMI7951) was 84.3%. For the same compound, the cell count (RVH-421) was 97%.

`CC[C@]1(O)C[C@H]2CN(CCc3c([nH]c4ccccc34)[C@@](C(=O)OC)(c3cc4c(cc3OC)N(C=O)[C@H]3[C@@](O)(C(=O)OC)[C@H](OC(C)=O)[C@]5(CC)C=CCN6CC[C@]43[C@@H]65)C2)C1` [vincristine] + CCCCCCCCc1ccc(CCC(N)(CO)CO)cc1 [fingolimod] (first compound 0.0005 µM, partner dose 10 µM) was tested, and the cell count (G361) was 0.509%, the cell count (IPC-298) was 24.2% and the cell count (IST-MEL1) was 5.18%. The cell count (LB2518-MEL) was 0.248%, the cell count (LOXIMVI) was 23.7% and the cell count (MEL-HO) was 2%. For the same compound, the cell count (MZ2-MEL) was 0.401%, the cell count (MeWo) was 28.5% and the cell count (RPMI7951) was 2.27%. The cell count (RVH-421) was 19.1%.

With `Cc1cc(Nc2cc(N3CCN(C)CC3)nc(Sc3ccc(NC(=O)C4CC4)cc3)n2)n[nH]1` [Tozasertib] + Cc1ccc(NC(=O)c2cccc(N(C)C)c2)cc1NC(=O)c1ccc(O)cc1 [ZM336372] (first compound 0.03 µM, partner dose 10 µM) the cell count (G361) was 75%, the cell count (IPC-298) was 91% and the cell count (IST-MEL1) was 83.8%. The cell count (LB2518-MEL) was 74.3%, the cell count (LOXIMVI) was 80.3% and the cell count (MEL-HO) was 82%. It also gave a cell count (MZ2-MEL) of 79%, a cell count (MeWo) of 86.1% and a cell count (RPMI7951) of 48.8%. For the same compound, the cell count (RVH-421) was 104%.

`N#CC[C@H](C1CCCC1)n1cc(-c2ncnc3[nH]ccc23)cn1` [ruxolitinib] + CN(NC(=O)CC(=O)NN(C)C(=S)c1ccccc1)C(=S)c1ccccc1 [STA4783] (first compound 5 µM, partner dose 0.03 µM) gave a cell count (G361) of 36.2%, a cell count (IPC-298) of 85.7% and a cell count (IST-MEL1) of 6.09%. It also gave a cell count (LB2518-MEL) of 25.5%, a cell count (LOXIMVI) of 82.3% and a cell count (MEL-HO) of 75.9%. The cell count (MZ2-MEL) was 121%, the cell count (MeWo) was 18.3% and the cell count (RPMI7951) was 85.2%. The cell count (RVH-421) was 45.4%.

`Cc1cc(Nc2cc(N3CCN(C)CC3)nc(Sc3ccc(NC(=O)C4CC4)cc3)n2)n[nH]1` [Tozasertib] + COc1cc2ncnc(Nc3ccc(Oc4ccccc4)cc3)c2cc1OC [SrcI1] (first compound 0.03 µM, partner dose 10 µM) showed a cell count (G361) of 40.5%, a cell count (IPC-298) of 80.3% and a cell count (IST-MEL1) of 87.5%. It also gave a cell count (LB2518-MEL) of 83.7%, a cell count (LOXIMVI) of 112% and a cell count (MEL-HO) of 76.3%. The cell count (MZ2-MEL) was 65.2%, the cell count (MeWo) was 59.2% and the cell count (RPMI7951) was 29.9%. It also gave a cell count (RVH-421) of 119%.
